Source: the supplement of paper PMC7125110
± gives the standard error. Variants at the background level are over-represented here.

B1: glmS ribozyme (parent)
chain: AUAAAAGCGCCAGAACUACAGAAAUGUAGUUGACGAGGAGGAGGUUUAUCGAAUUUUCGGCGGAUGCCUCCAAA

Legend:
Conditions in all cases: with glucosamine-6-phosphate
[1] = variants of: B1; assay: self-cleavage kobs at 640 uM GlcN6P; higher = faster cleavage; RNA array
Method in brief: (§1)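 A hybridised Cy3 probe tracked barcoded ribozyme variants, transcribed in situ by E. coli RNA polymerase on sequenced MiSeq chips, at 37 °C. The variants received 40 μM to 10 mM glucosamine-6-phosphate in HEPES/KCl/Mg(OAc)2 buffer. kobs came from decay fits and kcat and KM from weighted Michaelis–Menten fits.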

[2] = variants of: B1; assay: self-cleavage kobs at 2500 uM GlcN6P; higher = faster cleavage; RNA array
Method in brief: as §1

[3] = variants of: B1; assay: self-cleavage kobs at 40 uM GlcN6P; higher = faster cleavage; RNA array
Method in brief: as §1

[4] = variants of: B1; assay: self-cleavage kobs at 160 uM GlcN6P; higher = faster cleavage; RNA array
Method in brief: as §1

[5] = variants of: B1; assay: self-cleavage kobs at 10000 uM GlcN6P; higher = faster cleavage; RNA array
Method in brief: as §1

Variant | self-cleavage kobs at 640 uM GlcN6P [1] [s⁻¹] | self-cleavage kobs at 2500 uM GlcN6P [2] [s⁻¹] | self-cleavage kobs at 40 uM GlcN6P [3] [s⁻¹] | self-cleavage kobs at 160 uM GlcN6P [4] [s⁻¹] | self-cleavage kobs at 10000 uM GlcN6P [5] [s⁻¹]
A6U G9A C61A C67A | < 1e-05 |  |  |  | 
A6U G9C A52U C67A C70U | < 1e-05 |  |  |  | 
A6C C11A U55C | < 1e-05 | < 1e-05 |  |  | 
A6G G37U G60C | < 1e-05 | < 1e-05 |  |  | 
C68A C70G |  |  | < 1e-05 |  | 
A64G | 0.0109 ± 0.0004 | 0.0249 ± 0.0011 | 0.000914 ± 1.8e-05 | 0.0031 ± 0.0002 | 0.0412 ± 0.0018
G7C U31A A52C | < 1e-05 |  |  | < 1e-05 | 
C8A G13U | < 1e-05 |  |  | < 1e-05 | 
C67U C70A |  |  | < 1e-05 |  | 
A6G C11A G59U G60C | < 1e-05 |  |  |  | 
G7C U55C G60C | < 1e-05 |  |  | < 1e-05 | 
G7C G35A G60A | < 1e-05 |  |  |  | 
C8A A33G A42C A48C U55C | < 1e-05 |  |  |  | 
G7U A53C | < 1e-05 |  |  | < 1e-05 | < 1e-05
U2C C16G A53C | 0.000137 ± 1.9e-05 | 0.000285 ± 4.6e-05 |  | 4.66e-05 ± 1.6e-05 | 
C8G C50G A52U | < 1e-05 |  |  |  | 
C8G A42C U47A | < 1e-05 | < 1e-05 |  |  | 
A6U G29U G32U A42G U47A C71G | < 1e-05 | < 1e-05 |  |  | 
G7A G43C C71U | < 1e-05 |  |  | < 1e-05 | 
G59U C71A |  |  | < 1e-05 |  | 

Variant | self-cleavage kobs at 640 uM GlcN6P [1] [s⁻¹] | self-cleavage kobs at 2500 uM GlcN6P [2] [s⁻¹] | self-cleavage kobs at 40 uM GlcN6P [3] [s⁻¹] | self-cleavage kobs at 160 uM GlcN6P [4] [s⁻¹] | self-cleavage kobs at 10000 uM GlcN6P [5] [s⁻¹]
G7U U56C | < 1e-05 | < 1e-05 |  | < 1e-05 | < 1e-05
G7A G40C A48G G51U U56C | < 1e-05 |  |  |  | 
G7C C61A | < 1e-05 |  |  | < 1e-05 | 
A6C G7C U45A | < 1e-05 |  |  |  | 
A6U A52U A53G | < 1e-05 | < 1e-05 |  |  | 
U57G C67U |  |  | < 1e-05 |  | 
G62C G63A |  |  | < 1e-05 |  | 
C58G G60U | < 1e-05 | < 1e-05 | < 1e-05 | < 1e-05 | 
A6G G40U U54A | < 1e-05 |  |  | < 1e-05 | 
C8A A52C C58U G62U U69A | < 1e-05 | < 1e-05 |  | < 1e-05 | 
A6G G7U G35C G37A | < 1e-05 |  |  | < 1e-05 | 
C8G G44A U56A | < 1e-05 | < 1e-05 |  |  | < 1e-05
G7U A15U G51U C61U C67G | < 1e-05 |  |  | < 1e-05 | 
A6U G59U | < 1e-05 | < 1e-05 |  | < 1e-05 | < 1e-05
C8A A15U G35A C68A | < 1e-05 |  |  |  | 
G7U A36G U55C G62A A64U C70G | < 1e-05 | < 1e-05 |  |  | 
A6C G38C A53G | < 1e-05 |  |  |  | 
C8G A12C G44A U45C C68A | < 1e-05 | < 1e-05 |  |  | 
A6G C11U G43C | < 1e-05 |  |  | < 1e-05 | 
G7U G37C G41U | < 1e-05 | < 1e-05 |  |  | 

Variant | self-cleavage kobs at 640 uM GlcN6P [1] [s⁻¹] | self-cleavage kobs at 2500 uM GlcN6P [2] [s⁻¹] | self-cleavage kobs at 40 uM GlcN6P [3] [s⁻¹] | self-cleavage kobs at 160 uM GlcN6P [4] [s⁻¹] | self-cleavage kobs at 10000 uM GlcN6P [5] [s⁻¹]
A6G U49C G63A | < 1e-05 | < 1e-05 |  | < 1e-05 | 
G7C G9U A14C G44A U45G U54A G62U | < 1e-05 | < 1e-05 |  |  | 
A6G U31G | 4.67e-05 ± 9.4e-06 |  |  |  | 
A6G A12G A15G U49A C70G | < 1e-05 |  |  |  | 
G7A A15C G38C A42U U65G C71G | < 1e-05 |  |  | < 1e-05 | 
U69C C70A |  |  | < 1e-05 |  | 
U69C C70U | 0.000254 ± 3.7e-05 | 0.000524 ± 7.1e-05 | 5.3e-05 ± 1.3e-05 | 0.000108 ± 2.4e-05 | 0.000743 ± 0.00018
C8A U55G A64U | < 1e-05 | < 1e-05 |  |  | 
G7C C68G C70G | < 1e-05 | < 1e-05 |  | < 1e-05 | 
A6G C11G G41U U46A G63U | < 1e-05 |  |  | < 1e-05 | < 1e-05
G7U G44A U65G | < 1e-05 | < 1e-05 |  | < 1e-05 | 
G7A G44A A48C | < 1e-05 | < 1e-05 |  |  | 
A6C C11G A36G G41U U55C | < 1e-05 | < 1e-05 |  |  | < 1e-05
C61G C71G |  |  | 3.55e-05 ± 1.3e-05 |  | 
G7A A52U C61G | < 1e-05 | < 1e-05 |  | < 1e-05 | 
U65A C67U U69G |  |  | < 1e-05 |  | 
G7A G29C G38C | < 1e-05 | < 1e-05 |  |  | 
G7U A14G U45G U47C C70G | < 1e-05 |  |  |  | 
